{"source": "the supplement of paper PMC3334620", "note": "The full ranking holds about 33,000 sequences; the median of “E-score (-0.5 to 0.5)” is about -0.035, and the highest 2% start at about 0.34. The list shows a part of the results.", "data": [{"target": "T1, Mot3 (UniProt P54785)", "T1 sequence": "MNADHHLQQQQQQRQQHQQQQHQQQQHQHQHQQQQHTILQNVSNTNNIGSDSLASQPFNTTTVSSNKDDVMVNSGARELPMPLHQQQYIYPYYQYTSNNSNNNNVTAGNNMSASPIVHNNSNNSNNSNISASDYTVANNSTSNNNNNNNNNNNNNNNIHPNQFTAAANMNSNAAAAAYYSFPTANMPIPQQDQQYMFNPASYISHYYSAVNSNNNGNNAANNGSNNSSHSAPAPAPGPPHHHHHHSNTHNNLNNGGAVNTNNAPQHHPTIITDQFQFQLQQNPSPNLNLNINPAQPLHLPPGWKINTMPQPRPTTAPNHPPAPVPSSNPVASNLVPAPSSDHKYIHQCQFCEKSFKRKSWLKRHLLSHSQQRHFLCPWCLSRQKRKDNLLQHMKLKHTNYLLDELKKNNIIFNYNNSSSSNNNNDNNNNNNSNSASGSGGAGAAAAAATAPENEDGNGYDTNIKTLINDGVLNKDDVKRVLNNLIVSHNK", "assay": "PBM E-score (8-mer binding enrichment) (E-score (-0.5 to 0.5)); higher = stronger / more preferred TF binding; most listed sequences are background and not binding sites", "conditions": "protein concentration: 200 nM; construct: GST-full length", "how_it_was_run": "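The E-score, a modified Wilcoxon-Mann-Whitney statistic, was computed by the Universal PBM Analysis Suite for every ungapped eight-base word pooled with its reverse complement. Scans behind it were normalised with masliner after bound GST-tagged yeast transcription factors were detected with fluorescent anti-GST. The proteins, at about 100-200 nM, had been applied to universal all-10-mer Agilent arrays made double-stranded by primer extension.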", "values": [{"sequence": "AGCCCTCG", "PBM E-score": -0.13}, {"sequence": "CAGTTAAA", "PBM E-score": 0.0473}, {"sequence": "TTCTTAAA", "PBM E-score": -0.0819}, {"sequence": "AACCTAAG", "PBM E-score": 0.139}, {"sequence": "GCGCGACC", "PBM E-score": -0.0107}, {"sequence": "GTCCATGA", "PBM E-score": -0.0639}, {"sequence": "CAGAAGGA", "PBM E-score": 0.00219}, {"sequence": "AGGGCGAC", "PBM E-score": -0.207}, {"sequence": "AACCGCGA", "PBM E-score": 0.117}, {"sequence": "TCACCGCA", "PBM E-score": -0.149}, {"sequence": "CCAGCTGG", "PBM E-score": -0.0228}, {"sequence": "CGTCATAG", "PBM E-score": -0.092}, {"sequence": "GAACATAA", "PBM E-score": 0.0111}, {"sequence": "GGGATGAC", "PBM E-score": -0.151}, {"sequence": "AACTTGGA", "PBM E-score": -0.0439}, {"sequence": "AAGCCGAC", "PBM E-score": -0.119}, {"sequence": "AGGCCCAC", "PBM E-score": -0.0299}, {"sequence": "CGTTCAGC", "PBM E-score": -0.0729}, {"sequence": "GAATACGC", "PBM E-score": 0.275}, {"sequence": "ACCGTCAA", "PBM E-score": -0.169}, {"sequence": "ACTTCCGA", "PBM E-score": -0.128}, {"sequence": "CCACCTCC", "PBM E-score": -0.251}, {"sequence": "GTGTCCTA", "PBM E-score": 0.169}, {"sequence": "GCGAAGAA", "PBM E-score": -0.0244}, {"sequence": "CGGAAGCC", "PBM E-score": -0.237}, {"sequence": "AGTGGCGA", "PBM E-score": -0.122}, {"sequence": "GCAACATA", "PBM E-score": 0.177}, {"sequence": "GTGTCTGA", "PBM E-score": 0.0668}, {"sequence": "TGACACCA", "PBM E-score": -0.102}, {"sequence": "ATTCCACG", "PBM E-score": -0.116}, {"sequence": "GCGGAGAC", "PBM E-score": -0.137}, {"sequence": "AGCGCGTG", "PBM E-score": 0.0899}, {"sequence": "TCGGGTAA", "PBM E-score": 0.209}, {"sequence": "CGGCCTGC", "PBM E-score": -0.212}, {"sequence": "GCCTAAAC", "PBM E-score": 0.251}, {"sequence": "ATGGCCGA", "PBM E-score": 0.0543}, {"sequence": "GGCGGCAA", "PBM E-score": -0.223}, {"sequence": "AGTAGTGC", "PBM E-score": -0.0732}, {"sequence": "ATCAGTTA", "PBM E-score": 0.1}, {"sequence": "AGGTGGAT", "PBM E-score": -0.0952}, {"sequence": "ACGATGAT", "PBM E-score": -0.0832}, {"sequence": "CTTTTCTA", "PBM E-score": -0.0272}, {"sequence": "CGATCCAG", "PBM E-score": -0.148}, {"sequence": "GTTCGGCA", "PBM E-score": 0.0214}, {"sequence": "CTTCTAAA", "PBM E-score": 0.056}, {"sequence": "TAGACTGA", "PBM E-score": -0.0923}, {"sequence": "CTAAATTC", "PBM E-score": -0.0876}, {"sequence": "CGGTTCAC", "PBM E-score": -0.248}, {"sequence": "AACGTTAG", "PBM E-score": 0.0962}, {"sequence": "GGGTACTA", "PBM E-score": 0.128}, {"sequence": "CACTCCTA", "PBM E-score": -0.0744}, {"sequence": "TCCGCACA", "PBM E-score": -0.17}, {"sequence": "CGTGGCGA", "PBM E-score": -0.225}, {"sequence": "ATAAAAAA", "PBM E-score": 0.105}, {"sequence": "ATGAGGTA", "PBM E-score": 0.0008}, {"sequence": "AAGACGTA", "PBM E-score": 0.108}, {"sequence": "AAGCGGAT", "PBM E-score": -0.0845}, {"sequence": "GACTAAGA", "PBM E-score": -0.222}, {"sequence": "AGCAAGCT", "PBM E-score": -0.242}, {"sequence": "AATCAACC", "PBM E-score": -0.0448}, {"sequence": "AGAAGTGC", "PBM E-score": -0.166}, {"sequence": "AAGGAACC", "PBM E-score": 0.462}, {"sequence": "AAAAGTAT", "PBM E-score": -0.0544}, {"sequence": "GTGTTCTA", "PBM E-score": 0.208}, {"sequence": "ACGGCGTA", "PBM E-score": 0.231}, {"sequence": "ATTTGAGA", "PBM E-score": -0.0132}, {"sequence": "AACCTCGA", "PBM E-score": -0.021}, {"sequence": "CTAAGAGC", "PBM E-score": -0.197}, {"sequence": "ACGCTGAG", "PBM E-score": -0.175}, {"sequence": "ACTCACCA", "PBM E-score": -0.0911}, {"sequence": "TAATGGAA", "PBM E-score": -0.0062}, {"sequence": "CGAATCAC", "PBM E-score": -0.0617}, {"sequence": "AAAATACC", "PBM E-score": 0.0313}, {"sequence": "AAGACCCC", "PBM E-score": -0.0948}, {"sequence": "ATCCCGTG", "PBM E-score": 0.0831}, {"sequence": "TCCAGGGA", "PBM E-score": -0.212}, {"sequence": "CACACTCC", "PBM E-score": -0.178}, {"sequence": "ACAGGGCG", "PBM E-score": 0.0728}, {"sequence": "AGGAGCTG", "PBM E-score": -0.172}, {"sequence": "AAGGGCGA", "PBM E-score": -0.284}, {"sequence": "GCTCGGGA", "PBM E-score": -0.175}, {"sequence": "CGGGAGAC", "PBM E-score": -0.155}, {"sequence": "AACATATC", "PBM E-score": 0.171}, {"sequence": "CTGAATGC", "PBM E-score": -0.169}, {"sequence": "AGCGCCAG", "PBM E-score": -0.14}, {"sequence": "ATCCATTG", "PBM E-score": -0.135}]}]}
